Results as given in PubChem BioAssay AID1240 (Sanford-Burnham Center for Chemical Genomics, 2008).
Screen size: about 50,000 compounds; about 800 (1.6%) showed an effect of 50% or more. The list shows a part of the results.

molecular target: Bcl-2-like protein 10 (Homo sapiens) (UniProt Q9HD36); assay: TR3 peptide-Bcl-B binding displacers, biochemical primary FP assay, phenotype converters (AID 1240); conditions: GST-Bcl-B / FITC-TR3 peptide fluorescence polarization; stronger effect = higher value; compound at 3.75 mg/L;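 also: 0% = Bcl-B with tracer peptide and DMSO and 100% = tracer peptide lacking Bcl-B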
Sequence of UniProt Q9HD36 (Q9HD36 whole entry, looked up): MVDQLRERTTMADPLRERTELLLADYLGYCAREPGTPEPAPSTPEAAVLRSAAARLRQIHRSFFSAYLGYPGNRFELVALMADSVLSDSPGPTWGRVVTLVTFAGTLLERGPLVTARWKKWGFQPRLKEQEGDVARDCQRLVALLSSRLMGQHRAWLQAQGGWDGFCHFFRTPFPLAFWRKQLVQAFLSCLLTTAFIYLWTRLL

SMILES	displacement [%]
CC(C)(C)c1ccc(S(=O)(=O)Nc2ccc(Cl)c(C(N)=O)c2)cc1	-5
CCC12CN3CC(CC)(CN(C1)C3c1ccc([N+](=O)[O-])cc1)C2=O (stereo not drawn)	-8.3
C=CCNC(=O)C(=O)N/N=C/c1cccc(OC)c1	8.9
Cc1ccc2oc(-c3ccc(NC(=O)c4cccnc4)cc3O)nc2c1	3.4
CC(C)c1ccc(/C=N/N2CCN(c3ccccn3)CC2)cc1	-2.6
O=C(Nc1cccc2c1C(=O)c1ccccc1C2=O)c1ccc2c(c1)OCO2	3.8
Cc1ccc(-c2cc(C(=O)N3CCN(c4cccc(Cl)c4)CC3)c3ccccc3n2)c(C)c1	1.7
CCc1ccccc1N(CC(=O)Nc1ccc(OC)cc1)S(C)(=O)=O	-1.2
COc1cc(Br)c(/C=c2/sc3nc4ccccc4n3c2=O)cc1OC	132
O=C(CSc1nnnn1-c1ccccc1)Nc1ccc(O)cc1	-14.5
CC(C)NCCN1CCn2c1nc1ccccc12	10.5
COc1ccc(CC(=O)N2N=C3CCCCCC3C2(O)C(F)(F)F)cc1 (stereo not drawn)	17.6
O=C1C(C=NCc2ccc(Cl)c(Cl)c2)=C(O)c2ccccc21	2.5
COc1ccc(N2C=Nc3ccc(C)c4nc(C)cc2c34)cc1	-6.4
CC(Sc1ccc(Cl)cc1)C(=O)Nc1ccc(S(=O)(=O)N2CCOCC2)cc1 (stereo not drawn)	8.8
Cc1cccc(NC(=O)CN2CCOCC2)c1C	11.6
c1ccc2cc3[nH]c(CN4CCOCC4)nc3cc2c1	5.2
Cc1nc2cc(-c3cccc(Cl)c3)nn2c(C)c1Cl	10.7
Cc1ccc(C(=O)N/C(=C\c2cn(-c3ccccc3)nc2-c2ccc(F)cc2)C(=O)NCc2cccnc2)cc1	9
COc1c(I)cc(I)cc1/C=N\NC(=O)c1ccc([N+](=O)[O-])cc1	9.4
CC1C(C(=O)N(C=O)NC(=O)c2ccc(Cl)cc2)C2C=CC1C21CC1 (stereo not drawn)	-0.1
O=C(CN(c1ccc(F)cc1)S(=O)(=O)c1ccccc1)N1CCCC1	0
O=C(NCCc1c[nH]c2ccccc12)/C(=C/c1cccc([N+](=O)[O-])c1)NC(=O)c1ccccc1	4.5

SMILES	displacement [%]
O=C1/C(=C/c2ccc([N+](=O)[O-])cc2)NC(=S)N1c1ccccc1	3.8
COc1ccc(-c2nc3ccccc3c(C(=O)Nc3ccc(C(C)=O)cc3)c2C)cc1	-19
O=C(COc1ccccc1)Nc1ccccc1-c1ccccc1	-0.3
O=c1[nH]c(SCc2ccccc2)nc2ccccc12	-2.7
O=C(COc1ccc(Br)cc1)Nc1ccc(OC(F)(F)F)cc1	-1.2
Cc1ccc(S(=O)(=O)N2CCN(S(=O)(=O)c3ccc(C)cc3)C2c2ccc(N(C)C)cc2)cc1	11.7
COc1ccccc1N1CCN(/N=C\c2cc(OC)c(OC(C)=O)c(OC)c2)CC1	-6.7
COc1ccc(NC2=C(c3ccc(OC)cc3)C(=O)c3ccccc32)cc1	12.7
O=C1NC(c2ccc(Br)cc2)=N/C1=C/c1ccccc1F	-2.8
COc1ccccc1Oc1ccccc1C(=O)O	6.4
CCOc1ccc(N2C(=O)/C(=C/c3ccc(OC)c(OC)c3C(=O)O)SC2=S)cc1	4.2
c1ccc(CN2CCC(N3CCN(C4CCC(c5ccccc5)CC4)CC3)CC2)cc1 (stereo not drawn)	-2.9
COc1cccc(N(CC(=O)Nc2ccc(C(C)C)cc2)S(=O)(=O)c2ccccc2)c1	7.3
Cc1sc(NC(=O)c2ccc(Br)o2)c(C(N)=O)c1C	10
Cc1cccc(NC(=O)c2ccc(OC3CSC3)cc2)c1	-4.7
Cc1ccccc1/C=N/N1CCN(Cc2cccc3ccccc23)CC1	10.6
O=C(NCCCNc1ccc([N+](=O)[O-])cc1C(F)(F)F)c1ccc(Cl)cc1	-3.7
CCN(CC)C(=O)COc1ccc2oc(C)c(C(=O)OC)c2c1	5.9
Cc1ccc(C)c(OCCOCCOc2ncnc3ccccc23)c1	18.4
CC1(C)N([O-])c2cc([N+](=O)[O-])ccc2[N+]1=O	35.3
O=C(O)/C=C\C(=O)N/N=C/c1ccccc1	9.4
O=C(CSc1nc(-c2ccccc2)c(-c2ccccc2)o1)Nc1ccc([N+](=O)[O-])cc1	2.5
COc1cc(C(=O)N/N=C(\C)c2ccc(Cl)s2)ccc1O	0.2

SMILES	displacement [%]
O=C1NC(=S)N(c2ccccc2)C(=O)/C1=C/c1cc(Cl)c(O)c(Cl)c1	-10.9
CCCn1c(=O)c(C(=O)Nc2cccc(C)n2)c(O)c2ccccc21	21.8
COc1ccc(/C=C/C(=O)Nc2ccccc2Cl)cc1Br	9.2
CCOc1cc(OCC)cc(C(=O)Nc2cc(C)ccn2)c1	12.6
COc1ccc(-c2nc3cc(NC(=O)c4ccc(F)cc4)ccc3o2)cc1Cl	0.9
Cc1ccc(-n2c(Cc3ccccc3)nc3c(cnn3-c3ccccc3)c2=O)cc1C	1
CN(C)CCOC(=O)CCN1C(=O)/C(=C/c2c(Cl)cccc2Cl)SC1=S	-16.5
Cc1ccc([N+](=O)[O-])cc1NC(=O)C1CC1(c1ccccc1)c1ccccc1 (stereo not drawn)	-3.5
Cc1ccc(C(=O)Nc2ccc(Br)cc2)cc1S(=O)(=O)Nc1ccc(Cl)cn1	-10.9
COc1cc2c(cc1C)/C(=N/OC(=O)c1ccc(OC)c([N+](=O)[O-])c1)CCC2	-8.4
CCOC(=O)c1ccccc1NCN1C(=O)CSC1=O	12.4
O=C(NC(=S)Nc1cc(Cl)ccc1Cl)c1ccc(Cl)cc1	-8
Cc1ccc(C(=O)NNC(=O)c2cc3ccccc3cc2O)cc1	-23.2
N#Cc1c(N)nc(SCc2ccccc2)c(C#N)c1-c1cccs1	-10.4
O=C1NC(=O)/C(=C\c2ccc(Oc3ccc(C(F)(F)F)cc3[N+](=O)[O-])c(Cl)c2)S1	5.5
COc1cc(/C=C2/SC(=S)N(CC(=O)Nc3ccccc3C(=O)O)C2=O)cc(OC)c1OC	45.9
Cc1ccc(NC(=O)C(=O)NCC(O)c2ccccc2)cc1 (stereo not drawn)	6
O=C(CCCOc1ccc(Cl)cc1Cl)NNC(=O)c1cccc(Br)c1	-5.4
NC(=O)c1ccc(NC(=O)c2cc3ccccc3o2)cc1	-8.2
CCN=C(Nc1ccc2c(c1)OCO2)SC1CC(=O)N(c2ccc(Cl)cc2)C1=O (stereo not drawn)	-6.4
Cc1ccc(S(=O)(=O)Nc2cc(S(=O)(=O)c3ccccc3)c(O)c3ccccc23)cc1	21.9
O=C1NN(c2ccc(I)cc2)C(=O)/C1=C\c1ccccc1O	0.5
